Publication PMC4336329 (PLoS ONE, 2015)
The campaign covered roughly 310,000 compounds. About 2,200 (0.71%) showed an effect of 50% or more. The effect is printed as a negative number. This is one part of the list.

Molecular target: human ether-à-go-go-related gene (hERG) potassium channel (human, UniProt Q12809)
Assay: primary screen, population patch clamp on CHO cells stably expressing hERG

human ether-à-go-go-related gene (hERG) potassium channel, sequence (Q12809 whole entry, looked up): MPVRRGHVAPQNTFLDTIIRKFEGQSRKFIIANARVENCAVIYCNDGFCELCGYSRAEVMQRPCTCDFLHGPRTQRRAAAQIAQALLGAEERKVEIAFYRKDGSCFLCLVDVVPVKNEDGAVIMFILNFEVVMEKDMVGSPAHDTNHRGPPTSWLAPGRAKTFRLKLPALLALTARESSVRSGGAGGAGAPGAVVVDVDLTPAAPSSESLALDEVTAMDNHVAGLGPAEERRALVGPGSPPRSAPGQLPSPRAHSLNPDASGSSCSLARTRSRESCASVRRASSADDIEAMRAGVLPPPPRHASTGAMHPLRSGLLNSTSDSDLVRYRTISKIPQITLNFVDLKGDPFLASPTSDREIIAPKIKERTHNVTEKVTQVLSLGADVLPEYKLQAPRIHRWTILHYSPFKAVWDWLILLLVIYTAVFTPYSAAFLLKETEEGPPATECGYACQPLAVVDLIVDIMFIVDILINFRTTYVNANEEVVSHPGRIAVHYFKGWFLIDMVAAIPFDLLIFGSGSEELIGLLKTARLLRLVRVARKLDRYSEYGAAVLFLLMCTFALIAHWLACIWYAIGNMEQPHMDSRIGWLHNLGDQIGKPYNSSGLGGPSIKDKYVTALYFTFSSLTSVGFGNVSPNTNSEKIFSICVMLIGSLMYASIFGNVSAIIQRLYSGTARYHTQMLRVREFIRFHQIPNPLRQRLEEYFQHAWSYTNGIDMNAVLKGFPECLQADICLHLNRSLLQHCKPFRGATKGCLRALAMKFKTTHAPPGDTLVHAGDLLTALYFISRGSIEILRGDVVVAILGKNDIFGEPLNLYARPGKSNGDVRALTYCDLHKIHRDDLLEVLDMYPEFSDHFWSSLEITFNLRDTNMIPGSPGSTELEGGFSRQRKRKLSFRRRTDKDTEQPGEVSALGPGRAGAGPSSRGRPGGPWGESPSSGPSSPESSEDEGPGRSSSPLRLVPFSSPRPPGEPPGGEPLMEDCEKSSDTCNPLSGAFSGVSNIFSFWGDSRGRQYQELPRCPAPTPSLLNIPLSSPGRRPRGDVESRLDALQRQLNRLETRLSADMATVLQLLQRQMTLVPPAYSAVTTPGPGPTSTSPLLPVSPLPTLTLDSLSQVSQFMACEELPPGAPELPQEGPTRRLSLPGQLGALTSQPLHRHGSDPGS

Structure (SMILES)	hERG current change (%, negative = inhibition) at 1uM [%]
O=C(NC1CCN(C(=O)Nc2cccc(Cl)c2)CC1)c1ccccc1	8.13
COc1ccc(C(=O)Nc2ccccc2N2CCOCC2)cc1[N+](=O)[O-]	5.7
CCCN(CC1CC1)C(=O)CCc1nnc(CCc2c[nH]c3ccccc23)o1	15.8
CCC(=O)N(CCc1ccccc1)Cc1cc2ccc(OC)cc2[nH]c1=O	-1.09
Br.COc1ccc(C(=O)CN2CCCCC2)cc1	13.9
CN(c1ccccc1)S(=O)(=O)c1ccc(C(=O)NCc2ccccc2F)cc1	2.12
O=C(Nc1ccc(Cl)cc1)c1cccnc1N1CCCCC1	3.27
CC(=O)c1cccc(NC(=O)CN2CCc3cc4c(cc3C2)OCCCO4)c1	-7.11
CC1CCN(C2=NC(=O)/C(=C/c3cn[nH]c3-c3ccccc3)S2)CC1	2.59
CCCCCC(=O)Nc1nnn(CCC)n1	2.43
CCc1ccc(-c2csc(NC(=O)C3CC(=O)N(c4ccc5c(c4)OCCO5)C3)n2)cc1 (stereo not drawn)	11.8
Cc1nc(C)c(-c2csc(Nc3ccc(S(N)(=O)=O)cc3)n2)s1	14.4
CC(C(=O)OCC(=O)c1ccc(Br)cc1)N1C(=O)C2C3C=CC(C3)C2C1=O (stereo not drawn)	2.95
Cc1ccc(C)c2c1sc(=NC(=O)CN1C(=O)CCC1=O)n2C	13.2
Cc1[nH]c2ccccc2c1/C=N/NC(=O)c1cccc(S(=O)(=O)Nc2ccccc2Cl)c1	6.57
COc1ccc(-c2cc(-c3ccccc3)nc(N3CCCC3)n2)cc1OC	1.32
C=CCNC(=O)C(=O)NCCOc1ccccc1Cl	10.2
CC(C)(C)c1ccc(C(=O)NC(=S)NNC(=O)c2cccs2)cc1	15.3
O=C(CN1CCOCC1)Nc1ccc(Oc2ccccc2)cc1	1.27

Structure (SMILES)	hERG current change (%, negative = inhibition) at 1uM [%]
COc1cc(C2CC(=O)N3CN(Cc4ccco4)CSC3=C2C#N)ccc1OCc1ccccc1 (stereo not drawn)	9.48
COc1ccc(/C=C(\NC(=O)c2ccccc2)C(=O)N2CCN(C)CC2)cc1OC	23.7
COC(=O)c1cc(=O)n(-c2ccc(F)cc2)c(=Nc2ccc(F)cc2)s1	11.9
COCCn1c(=O)[nH]c(=O)c2c(C(F)(F)F)cc(-c3cccs3)nc21	9.12
CCc1ccc(OCC(=O)NC(C)(C)C)cc1	25.8
O=C(Nc1cccc(Cl)c1)Nc1cccc(Cl)c1	16.1
COc1cccc(N/C(N)=N/c2nc(C(F)(F)F)cc(=O)[nH]2)c1	6.94
O=C(Nc1ccccc1)Nc1nnc(Cc2ccccc2F)s1	6.83
CCOP(=O)(OCC)C(NS(=O)(=O)c1ccccc1)C(Cl)(Cl)Cl (stereo not drawn)	15.8
N#Cc1c(N)n(-c2ccc(O)cc2)c2nc3ccccc3nc12	10.3
CCC(=O)N=c1sc2cc([N+](=O)[O-])ccc2n1CCOC	7.03
COC(=O)C1=CO[C@@H](O[C@@H]2OC(CO)[C@@H](O)[C@@H](O)[C@@H]2O)C2C1CC[C@]2(C)O (stereo partly drawn)	3.3
Cc1cc([N+](=O)[O-])ccc1NC(=O)C(C)N1CCN(c2ccccn2)CC1 (stereo not drawn)	-40
NC(=O)/C(=C/c1ccco1)NC(=O)c1ccc(Br)o1	5.74
COc1ccc(CNC(=S)Nc2cccc(C)c2)cc1	0.33
CCOC(=O)C(C)Sc1nc2c([nH]c3ccccc32)c(=O)n1C (stereo not drawn)	1.76
COc1ccc(C(=O)Cn2nnc(-c3ccccc3NC(=O)C3CC3)n2)cc1	9.19
COc1ccc(Nc2cc(C(=O)NCCCN3CCN(C)CC3)c3ccccc3n2)cc1	8.65
OCCC1CN(Cc2ccccc2O)CCN1CCCc1ccccc1 (stereo not drawn)	-20.5

Structure (SMILES)	hERG current change (%, negative = inhibition) at 1uM [%]
Cc1cccc(CC(=O)N2CCC(n3nccc3NC(=O)C3CC3)CC2)c1	18
COC(=O)c1sc2nc(C)nc(SCC(=O)N3CCC(C(=O)O)CC3)c2c1C	13.7
COc1ccccc1CNC(=O)CN(C)CC(=O)Nc1cccc(F)c1	7.83
O=S1(=O)CC(O)C(NCc2ccco2)C1 (stereo not drawn)	-5.67
CCOc1ccc(CN2CCCC(CO)(Cc3ccccc3F)C2)cc1 (stereo not drawn)	-11.4
CCCCN(CC)S(=O)(=O)c1ccc(C(=O)N(CCCN(C)C)c2nc3cc(C)cc(C)c3s2)cc1.Cl	-34.6
COc1ccc(N(C(=O)c2cccc(OC)c2OC)C2C=CS(=O)(=O)C2)c(OC)c1 (stereo not drawn)	5.11
CCOC(=O)c1nnn(-c2nonc2N)c1-c1ccccc1	11.1
Cc1ccc(N(C(=O)C2CCCC2)C2C=CS(=O)(=O)C2)cc1C (stereo not drawn)	3.46
Cc1nn(CC#N)c(=O)n1-c1ccccc1F	8.19
O=C(CC1(O)C(=O)Nc2ccccc21)c1ccccc1 (stereo not drawn)	10.9
CC(C)(C)c1ccc(OCCC(=O)Nc2cccc(S(=O)(=O)N3CCCC3)c2)cc1	12
CCOc1ccc(/C(O)=C2/C(=O)C(=O)N(CCOCCO)C2c2ccc(F)cc2)cc1 (stereo not drawn)	-2.22
NCc1cccc(-n2cccn2)c1.O=C(O)CC(=O)O	1.29
O=C(NCc1ccccc1)c1ccccc1OCC(=O)N1CCCCC1	-2.15
CC1(C)CCC/C(=C\c2ccccc2)C1=O	4.83
S=C(NCc1ccc(Cl)cc1)Nc1ccccc1Cl	13.6
O=C(COC(=O)c1cc([N+](=O)[O-])ccc1NCCO)Nc1cccc(S(=O)(=O)N2CCCC2)c1	21.8
O=C(Nc1ccncc1)c1c(F)cccc1F	-13.1
